Whole data set: some 33,000 sequences, median “E-score (-0.5 to 0.5)” near -0.016, cut for the highest 2% near 0.32. The list shows a part of the results.
biological target: T1, Stp1 (UniProt B3LFK1); experiment: PBM E-score (8-mer binding enrichment) (E-score (-0.5 to 0.5)); higher = stronger / more preferred TF binding; most listed sequences are background and not binding sites; details: protein concentration: 200 nM; construct: GST-full length
T1 sequence: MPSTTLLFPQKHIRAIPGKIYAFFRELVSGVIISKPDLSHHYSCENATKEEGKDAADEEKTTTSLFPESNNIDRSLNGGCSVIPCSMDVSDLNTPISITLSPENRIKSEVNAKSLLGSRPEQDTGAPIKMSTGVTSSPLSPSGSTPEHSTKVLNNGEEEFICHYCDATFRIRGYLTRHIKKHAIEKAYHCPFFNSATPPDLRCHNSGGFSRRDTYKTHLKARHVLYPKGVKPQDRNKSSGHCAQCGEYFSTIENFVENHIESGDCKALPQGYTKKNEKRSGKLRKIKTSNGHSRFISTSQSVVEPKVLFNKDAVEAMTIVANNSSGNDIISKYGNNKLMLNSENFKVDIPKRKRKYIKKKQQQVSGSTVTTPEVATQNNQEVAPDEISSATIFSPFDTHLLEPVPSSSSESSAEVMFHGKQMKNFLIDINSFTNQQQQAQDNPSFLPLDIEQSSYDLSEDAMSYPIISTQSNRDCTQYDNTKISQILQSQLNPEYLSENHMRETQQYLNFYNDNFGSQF
In short: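 The E-score, a modified Wilcoxon-Mann-Whitney statistic, was computed by the Universal PBM Analysis Suite for every ungapped eight-base word pooled with its reverse complement. Scans behind it were normalised with masliner after bound GST-tagged yeast transcription factors were detected with fluorescent anti-GST. The proteins, at about 100-200 nM, had been applied to universal all-10-mer Agilent arrays made double-stranded by primer extension.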

| Sequence | PBM E-score |
| --- | --- |
| ATCTGGCG | -0.0788 |
| CGTGAATA | 0.0929 |
| GACCTTAC | 0.0257 |
| AACGTCCA | -0.0451 |
| AAGATCTA | -0.146 |
| CGGATTAG | 0.0588 |
| GCGGCTGA | 0.0916 |
| TCCGCAAA | 0.015 |
| ATTGGCGG | -0.156 |
| CGGAAGCA | 0.153 |
| ACCCCAAG | -0.104 |
| ATCGGACA | -0.0855 |
| CCCTATAC | -0.168 |
| CCCGGTGC | -0.17 |
| ATGGAGCG | 0.19 |
| ATCTAACA | -0.0427 |
| CCAACGGC | 0.316 |
| GGGAAGGA | -0.233 |
| CGGCGGTA | 0.335 |
| GTTATAGA | 0.182 |
| AAAAAATG | 0.218 |
| TAGTGAGA | 0.081 |
| AACTCACG | 0.142 |
| GGAGTCCC | -0.259 |
| TAGTTCAA | 0.0302 |

| Sequence | PBM E-score |
| --- | --- |
| CCTATACG | -0.0105 |
| AGTGGTCG | -0.236 |
| CATATGAG | 0.0378 |
| TAGCCTAA | -0.0614 |
| ACTGGTGC | 0.279 |
| GAGGCGGC | 0.374 |
| GTAGGGAC | 0.0592 |
| ACCAAGAC | -0.0197 |
| ATCCGAAA | -0.00635 |
| GGCAGGAA | 0.0319 |
| GTACGGTA | 0.147 |
| AGCGGACG | 0.12 |
| AGTCTCCC | -0.272 |
| CTCTTCGA | -0.0286 |
| CCGCGAGG | 0.294 |
| GGGCGAGA | -0.132 |
| TCAATTCA | -0.0185 |
| GCCTCCTA | 0.00877 |
| CCCTTCCC | -0.243 |
| CGCTGAAA | 0.0896 |
| AGCTATAT | 0.0574 |
| AAGTGCCG | 0.453 |
| CTAAGACC | -0.176 |
| CTCCATAA | -0.164 |
| GCTGGACA | -0.101 |

| Sequence | PBM E-score |
| --- | --- |
| TGGGACCA | -0.282 |
| AGAGCCAA | 0.0298 |
| AAAAAACC | -0.0654 |
| ACTAAATG | -0.0582 |
| GAGTAAAA | 0.114 |
| AAGCTGGG | -0.164 |
| AGTGCCAC | 0.242 |
| AAAACCGG | 0.0827 |
| AGATGTCC | -0.121 |
| CAGGAAGC | 0.0679 |
| GCGTGCAA | -0.159 |
| GCCCACGA | -0.117 |
| ACTATGTA | -0.00696 |
| ATGACTTG | -0.172 |
| TCCTCCAA | -0.198 |
| CTGAACTC | -0.24 |
| GAGTGTGC | 0.0735 |
| ATGACTGC | -0.146 |
| ACTCCAAT | -0.137 |
| GCGTGAAA | 0.194 |
| GTGCGATA | -0.0177 |
| ATCTTCGA | -0.00056 |
| CTGGCAAA | 0.0557 |
| AATACCCG | 0.029 |
| TACATAAA | 0.0395 |

| Sequence | PBM E-score |
| --- | --- |
| GAGCGCCC | 0.0345 |
| CACAATTC | 0.169 |
| CCTAGGGA | -0.131 |
| GAGAATGC | 0.156 |
| ACAACGCC | 0.311 |
| TCAATAGA | -0.029 |
| CCCCAAGC | 0.14 |
| CGGCCGAG | 0.0456 |
| AACCGAGC | 0.14 |
| ATGGCCTC | -0.146 |
| AGCGAGTC | -0.182 |
| AGTGCAAG | 0.184 |
| CTGAGCAG | -0.0205 |
| CTTACAAC | 0.215 |
| CGTTTACC | 0.139 |
| GATCCAAC | -0.213 |
| CCCTATAG | -0.0685 |
| GTAGTAAC | -0.0907 |
| AACGCCGC | 0.47 |
| AATTGCGG | 0.139 |
| GTTCGAGA | -0.035 |
| ATAAAGCC | 0.173 |
| ACTGGGGG | -0.416 |
| CACAAGGA | 0.0226 |
| AGAATATG | 0.0553 |

| Sequence | PBM E-score |
| --- | --- |
| GCCGTCAC | 0.219 |
| CTATTCTA | 0.0643 |
| AACTTCCT | 0.0443 |
| CAGTAGAA | -0.0821 |
| CGGGTGAC | -0.069 |
| GCGACGCC | 0.296 |
| ATCAGGGC | -0.224 |
| GGAGGAAA | -0.154 |
| GTGCTGCA | 0.0505 |
| GCGTGCGA | -0.0235 |
| GCTGACGA | -0.00687 |
| CCCGGAGA | -0.199 |
| CGTGAAAA | 0.204 |
| CTTCATCA | -0.0498 |
| CGATAGGC | 0.135 |
| CAGAACTC | -0.0507 |
| AATGATGG | -0.0217 |
| AATTCCCG | -0.0443 |
| ATGGTGAC | -0.138 |
| AGGGACTA | -0.205 |
| AGGTATCC | -4e-05 |
| ACATACAC | 0.162 |
| CAAGAATG | -0.0254 |
| GATAACAC | 0.0738 |
| CGGGACAC | -0.137 |

| Sequence | PBM E-score |
| --- | --- |
| CAATGTTA | 0.00872 |
| ACAGCACT | 0.0191 |
| CGAAGCAC | -0.0875 |
| TATACATA | 0.0439 |
| AAAACTGG | -0.176 |
| ACCTCGCC | -0.158 |
| GTAGAACA | -0.156 |
| GGCTGTTA | 0.196 |
| GGCGACCA | 0.104 |
| CACACAAG | 0.0408 |
| AACTAATT | 0.163 |
| CGTCGTTA | -0.05 |
| GCTTTCTA | 0.263 |
| CCAGTGTA | 0.0284 |
| AGGATATA | 0.016 |
| GCTTTAGA | 0.00189 |
| ACAGCATG | 0.00613 |
| AATAGCCT | -0.0101 |
| ACTGCATG | 0.0776 |
| TCAGTTAA | 0.0358 |
| GTCGGACA | -0.0595 |
| TGGAGACA | -0.0591 |
| TTCAAAAA | 0.195 |
| TAAGCTTA | 0.126 |
| CCATCTGA | 0.0654 |

| Sequence | PBM E-score |
| --- | --- |
| CAAGCAAA | -0.0183 |
| CACACATC | -0.0672 |
| ACTGGTAG | 0.0139 |
| CAATTTAA | 0.169 |
| CTGGGCAA | 0.00874 |
| CACTTATC | 0.00597 |
| CCACGTCC | -0.126 |
| ACGACTTC | -0.0717 |
| GGCGTACA | 0.068 |
| ATATTCAC | -0.00705 |
| ACCTGTTG | -0.0536 |
| GAGGCACC | 0.239 |
| CGGTTCTC | -0.0589 |
| CCGCTACG | 0.0752 |
| AAGACGCG | 0.0307 |
| ACACAATG | 0.0282 |
| ACATCCGA | -0.0192 |
| TAATGACA | -0.0122 |
| CAAGGGGC | 0.0683 |
| ACGGACAA | 0.142 |
| AGCAAACT | 0.1 |
| AGTAACTG | -0.0431 |

Source: the supplement of paper PMC3334620
